{
  "source": "the supplement of paper PMC8728848",
  "experiment_in_all_cases": "glycan array binding signal (z-score within array); higher = stronger binding",
  "details_in_all_cases": "glycan notation: IUPAC condensed, linker removed",
  "key": {"[1]": {"molecular_target": "Fuc(a1-2)Gal(b1-3)GlcNAc(b1-2)Man(a1-3)[Fuc(a1-2)Gal(b1-3)GlcNAc(b1-2)Man(a1-6)]Man(b1-4)GlcNAc(b1-4)[Fuc(a1-6)]GlcNAc", "outline": "(§1)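 From the Consortium for Functional Glycomics database, 3228 arrays were curated, keeping only those whose protein sequence was available. Binding is given as a within-array Z-score averaged across arrays sharing a protein sequence and across linkers. Negative Z-scores can be read as non-binding.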"}, "[2]": {"molecular_target": "Fuc(a1-2)Gal(b1-4)GlcNAc(b1-3)GalNAc", "outline": "as §1"}, "[3]": {"molecular_target": "Fuc(a1-2)[Gal(a1-3)]Gal(b1-3)GlcNAc(b1-6)GalNAc", "outline": "as §1"}, "[4]": {"molecular_target": "Fuc(a1-2)[Gal(a1-3)]Gal(b1-4)GlcNAc", "outline": "as §1"}, "[5]": {"molecular_target": "Fuc(a1-2)[Gal(a1-4)]Gal(b1-4)GlcNAc", "outline": "as §1"}, "[6]": {"molecular_target": "Fuc(a1-2)[GalNAc(a1-3)]Gal(b1-3)GlcNAc(b1-3)GalNAc", "outline": "as §1"}, "[7]": {"molecular_target": "Fuc(a1-2)[GalNAc(a1-3)]Gal(b1-4)GlcNAc(b1-3)GalNAc", "outline": "as §1"}, "[8]": {"molecular_target": "Gal(a1-4)Gal(b1-3)GlcNAc(b1-2)Man(a1-3)[Gal(a1-4)Gal(b1-3)GlcNAc(b1-2)Man(a1-6)]Man(b1-4)GlcNAc(b1-4)GlcNAc", "outline": "as §1"}, "[9]": {"molecular_target": "Gal(b1-3)GlcNAc(b1-2)Man", "outline": "as §1"}, "[10]": {"molecular_target": "Gal(b1-3)GlcNAc(b1-3)Gal(b1-4)Glc", "outline": "as §1"}, "[11]": {"molecular_target": "Gal(b1-3)GlcNAc(b1-6)[Gal(b1-3)]GalNAc", "outline": "as §1"}, "[12]": {"molecular_target": "Gal(b1-4)Glc6S", "outline": "as §1"}, "[13]": {"molecular_target": "Gal(b1-4)GlcNAc(b1-2)Man", "outline": "as §1"}, "[14]": {"molecular_target": "Gal(b1-4)GlcNAc(b1-2)Man(a1-3)[Gal(b1-4)GlcNAc(b1-2)Man(a1-6)]Man(b1-4)GlcNAc(b1-4)GlcNAc", "outline": "as §1"}, "[15]": {"molecular_target": "Gal(b1-4)GlcNAc(b1-2)Man(a1-3)[Gal(b1-4)GlcNAc(b1-2)Man(a1-6)][Gal(b1-4)GlcNAc(b1-4)]Man(b1-4)GlcNAc(b1-4)[Fuc(a1-6)]GlcNAc", "outline": "as §1"}, "[16]": {"molecular_target": "Gal(b1-4)GlcNAc(b1-2)[Gal(b1-4)GlcNAc(b1-4)]Man(a1-3)[GlcNAc(b1-4)][Gal(b1-4)GlcNAc(b1-2)[Gal(b1-4)GlcNAc(b1-6)]Man(a1-6)]Man(b1-4)GlcNAc(b1-4)GlcNAc", "outline": "as §1"}, "[17]": {"molecular_target": "Gal(b1-4)GlcNAc(b1-3)Gal(b1-4)GlcNAc(b1-2)Man(a1-3)[Gal(b1-4)GlcNAc(b1-3)Gal(b1-4)GlcNAc(b1-2)Man(a1-6)]Man(b1-4)GlcNAc(b1-4)[Fuc(a1-6)]GlcNAc", "outline": "as §1"}, "[18]": {"molecular_target": "Gal(b1-4)GlcNAc6P", "outline": "as §1"}, "[19]": {"molecular_target": "Gal6S(b1-3)GlcNAc6S", "outline": "as §1"}, "[20]": {"molecular_target": "GalNAc(a1-3)Gal", "outline": "as §1"}, "[21]": {"molecular_target": "GalNAc(a1-3)GalNAc(b1-3)Gal(a1-4)Gal(b1-4)GlcNAc", "outline": "as §1"}, "[22]": {"molecular_target": "GalNAc(b1-3)Gal(a1-4)Gal(b1-4)GlcNAc(b1-3)Gal(b1-4)Glc", "outline": "as §1"}, "[23]": {"molecular_target": "GalNAc(b1-4)GlcNAc(b1-2)Man", "outline": "as §1"}, "[24]": {"molecular_target": "GalNAc(b1-4)GlcNAc6S", "outline": "as §1"}, "[25]": {"molecular_target": "GalNAc(b1-6)GalNAc", "outline": "as §1"}, "[26]": {"molecular_target": "GalNAc6S(b1-4)GlcNAc", "outline": "as §1"}, "[27]": {"molecular_target": "GlcA3S(b1-3)Gal(b1-4)GlcNAc(b1-2)Man", "outline": "as §1"}, "[28]": {"molecular_target": "GlcA3S(b1-3)Gal(b1-4)GlcNAc(b1-3)Gal(b1-4)Glc", "outline": "as §1"}, "[29]": {"molecular_target": "GlcNAc(b1-2)[GlcNAc(b1-6)]Man(a1-6)[GlcNAc(b1-2)Man(a1-3)]Man(b1-4)GlcNAc(b1-4)GlcNAc", "outline": "as §1"}, "[30]": {"molecular_target": "GlcNAc(b1-6)GalNAc", "outline": "as §1"}, "[31]": {"molecular_target": "Kdn(a2-3)Gal(b1-3)GlcNAc", "outline": "as §1"}, "[32]": {"molecular_target": "Man(a1-3)[Man(a1-6)]Man(a1-6)[Man(a1-3)]Man(b1-4)GlcNAc(b1-4)GlcNAc", "outline": "as §1"}, "[33]": {"molecular_target": "Neu5Ac(a2-3)Gal(b1-3)GlcNAc", "outline": "as §1"}, "[34]": {"molecular_target": "Neu5Ac(a2-3)Gal(b1-4)GlcNAc(b1-2)Man", "outline": "as §1"}, "[35]": {"molecular_target": "Neu5Ac(a2-3)Gal(b1-4)GlcNAc(b1-2)[Neu5Ac(a2-3)Gal(b1-4)GlcNAc(b1-4)]Man(a1-3)[GlcNAc(b1-4)][Neu5Ac(a2-3)Gal(b1-4)GlcNAc(b1-4)Man(a1-6)]Man(b1-4)GlcNAc(b1-4)GlcNAc", "outline": "as §1"}, "[36]": {"molecular_target": "Neu5Ac(a2-3)Gal(b1-4)GlcNAc(b1-3)Gal(b1-4)GlcNAc", "outline": "as §1"}, "[37]": {"molecular_target": "Neu5Ac(a2-3)Gal(b1-4)GlcNAc(b1-3)Gal(b1-4)GlcNAc(b1-3)GalNAc", "outline": "as §1"}, "[38]": {"molecular_target": "Neu5Ac(a2-3)Gal(b1-4)[Fuc(a1-3)]GlcNAc(b1-3)Gal(b1-4)GlcNAc", "outline": "as §1"}, "[39]": {"molecular_target": "Neu5Ac(a2-3)[GalNAc(b1-4)]Gal(b1-4)Glc", "outline": "as §1"}, "[40]": {"molecular_target": "Neu5Ac(a2-3)[GalNAc(b1-4)]Gal(b1-4)GlcNAc", "outline": "as §1"}, "[41]": {"molecular_target": "Neu5Ac(a2-6)Gal(b1-4)GlcNAc(b1-2)[Neu5Ac(a2-6)Gal(b1-4)GlcNAc(b1-4)]Man(a1-3)[GlcNAc(b1-4)][Neu5Ac(a2-6)Gal(b1-4)GlcNAc(b1-4)Man(a1-6)]Man(b1-4)GlcNAc(b1-4)GlcNAc", "outline": "as §1"}, "[42]": {"molecular_target": "Neu5Ac(a2-6)Gal(b1-4)GlcNAc(b1-6)[Gal(b1-3)GlcNAc(b1-3)]Gal(b1-4)Glc", "outline": "as §1"}, "[43]": {"molecular_target": "Neu5Gc(a2-6)GalNAc", "outline": "as §1"}},
  "note": "The full list was thinned out, with the strongest signals kept by preference.",
  "data": [
    {"binder": "Fc-marm-DC-ASGPR-CRD (protein) ASCPINWVEHQGSCYWFSRSGKTWPEAERYCQLENTHLVVINSREEQNFVQAHLGSAYTWMGLSDPEGVWKWVDGTDYSSGFQNWKPGQPDDWQGHGLGGGEDCAHFHPDGRWNDDVCQRSYHWVCEAGLTQASQDSHT[in this place human IgG1 Fc]", "values": [
      {"measurement": "glycan array binding signal (z-score)", "setting": "[1]", "result": -0.052},
      {"measurement": "glycan array binding signal (z-score)", "setting": "[2]", "result": -0.429},
      {"measurement": "glycan array binding signal (z-score)", "setting": "[3]", "result": 2.9},
      {"measurement": "glycan array binding signal (z-score)", "setting": "[4]", "result": -0.512},
      {"measurement": "glycan array binding signal (z-score)", "setting": "[5]", "result": -0.476},
      {"measurement": "glycan array binding signal (z-score)", "setting": "[6]", "result": 2.82},
      {"measurement": "glycan array binding signal (z-score)", "setting": "[7]", "result": 3.41},
      {"measurement": "glycan array binding signal (z-score)", "setting": "[8]", "result": -0.248},
      {"measurement": "glycan array binding signal (z-score)", "setting": "[9]", "result": -0.467},
      {"measurement": "glycan array binding signal (z-score)", "setting": "[10]", "result": -0.482},
      {"measurement": "glycan array binding signal (z-score)", "setting": "[11]", "result": 1.3},
      {"measurement": "glycan array binding signal (z-score)", "setting": "[12]", "result": -0.505},
      {"measurement": "glycan array binding signal (z-score)", "setting": "[13]", "result": 2.97},
      {"measurement": "glycan array binding signal (z-score)", "setting": "[14]", "result": -0.443},
      {"measurement": "glycan array binding signal (z-score)", "setting": "[15]", "result": -0.444},
      {"measurement": "glycan array binding signal (z-score)", "setting": "[16]", "result": -0.495},
      {"measurement": "glycan array binding signal (z-score)", "setting": "[17]", "result": -0.353},
      {"measurement": "glycan array binding signal (z-score)", "setting": "[18]", "result": -0.53},
      {"measurement": "glycan array binding signal (z-score)", "setting": "[19]", "result": -0.458},
      {"measurement": "glycan array binding signal (z-score)", "setting": "[20]", "result": 2.87},
      {"measurement": "glycan array binding signal (z-score)", "setting": "[21]", "result": 2.16},
      {"measurement": "glycan array binding signal (z-score)", "setting": "[22]", "result": 2.68},
      {"measurement": "glycan array binding signal (z-score)", "setting": "[23]", "result": 2.67},
      {"measurement": "glycan array binding signal (z-score)", "setting": "[24]", "result": 3.13},
      {"measurement": "glycan array binding signal (z-score)", "setting": "[25]", "result": -0.528},
      {"measurement": "glycan array binding signal (z-score)", "setting": "[26]", "result": 2.66},
      {"measurement": "glycan array binding signal (z-score)", "setting": "[27]", "result": -0.539},
      {"measurement": "glycan array binding signal (z-score)", "setting": "[28]", "result": -0.485},
      {"measurement": "glycan array binding signal (z-score)", "setting": "[29]", "result": -0.392},
      {"measurement": "glycan array binding signal (z-score)", "setting": "[30]", "result": 2.85},
      {"measurement": "glycan array binding signal (z-score)", "setting": "[31]", "result": -0.53},
      {"measurement": "glycan array binding signal (z-score)", "setting": "[32]", "result": -0.533},
      {"measurement": "glycan array binding signal (z-score)", "setting": "[33]", "result": -0.515},
      {"measurement": "glycan array binding signal (z-score)", "setting": "[34]", "result": 0.495},
      {"measurement": "glycan array binding signal (z-score)", "setting": "[35]", "result": -0.446},
      {"measurement": "glycan array binding signal (z-score)", "setting": "[36]", "result": -0.53},
      {"measurement": "glycan array binding signal (z-score)", "setting": "[37]", "result": -0.48},
      {"measurement": "glycan array binding signal (z-score)", "setting": "[38]", "result": -0.359},
      {"measurement": "glycan array binding signal (z-score)", "setting": "[39]", "result": 2.31},
      {"measurement": "glycan array binding signal (z-score)", "setting": "[40]", "result": 2.07},
      {"measurement": "glycan array binding signal (z-score)", "setting": "[41]", "result": -0.357},
      {"measurement": "glycan array binding signal (z-score)", "setting": "[42]", "result": -0.5},
      {"measurement": "glycan array binding signal (z-score)", "setting": "[43]", "result": 2.78}
    ]}
  ]
}
